Laboratory results from the supplement of paper PMC12350171.
Counter-ions that a name gives are not always drawn. Synthetic gut communities (20 or 21 species) grown anaerobically with drug for 24 h at the dose given, then challenged with the named pathogen. Pathogen growth (luminescence, or colony counts for V. cholerae) or community OD578 as fold of untreated communities, mean of three; above 1 = more growth. No active / inactive call.

Experiments:
[1] = tested on: Klebsiella pneumoniae MKP103 (community: Com20); assay: pathogen growth (luminescence or CFU) in drug-pretreated community relative to untreated community (fold of untreated control); higher = more pathogen expansion
[2] = tested on: Shigella flexneri 24570 (community: Com20); assay: as above
[3] = tested on: Vibrio cholerae A1552 (community: Com20); assay: as above
[4] = tested on: Escherichia coli CFT073 (community: Com20); assay: as above
[5] = tested on: Yersinia pseudotuberculosis YPIII (community: Com20); assay: as above
[6] = tested on: Yersinia enterocolitica WA-314 (community: Com20); assay: as above
[7] = tested on: Salmonella enterica Typhimurium in Com20; assay: S. Typhimurium luminescence in drug-pretreated Com20 relative to untreated Com20 (fold of untreated control); higher = more pathogen expansion
[8] = tested on: Salmonella enterica Typhimurium (community: Com21 (Com20 + E. coli ED1a)); assay: pathogen growth (luminescence or CFU) in drug-pretreated community relative to untreated community (fold of untreated control); higher = more pathogen expansion
[9] = tested on: Com20 synthetic gut community; assay: Com20 community biomass OD578 after 24 h drug treatment relative to untreated (fraction of untreated control); higher = more community growth
[10] = drug pretreatment concentration 10 µM
[11] = drug pretreatment concentration 20 µM
[12] = drug pretreatment concentration 40 µM
[13] = drug pretreatment concentration 80 µM
[14] = drug pretreatment concentration 100 µM
[15] = drug pretreatment concentration 160 µM
[16] = drug pretreatment concentration 2.5 µM
[17] = drug pretreatment concentration 5 µM

Compound | pathogen growth [1, 10] | pathogen growth [1, 11] | pathogen growth [1, 12] | pathogen growth [1, 13] | pathogen growth [2, 10] | pathogen growth [2, 11] | pathogen growth [2, 12] | pathogen growth [2, 13] | pathogen growth [3, 10] | pathogen growth [3, 11] | pathogen growth [3, 12] | pathogen growth [3, 13] | S. Typhimurium luminescence [7, 10] | S. Typhimurium luminescence [7, 11] | S. Typhimurium luminescence [7, 12] | pathogen growth [8, 10] | pathogen growth [8, 11] | pathogen growth [8, 12] | pathogen growth [8, 13] | pathogen growth [8, 15] | other results
CN(C)CCCN1c2ccccc2Sc2ccc(Cl)cc21 [Chlorpromazine hydrochloride] | 0.966 | 1.36 | 1.79 | 2.9 | 1.71 | 1.44 | 1.55 | 2.48 | 0.991 | 1.24 | 0.714 | 1.45 |  |  |  |  |  |  |  |  | pathogen growth [1, 14]: 3.43; pathogen growth [2, 14]: 3.25; pathogen growth [3, 14]: 1.56; pathogen growth [4, 10]: 1.37; pathogen growth [4, 11]: 1.51; pathogen growth [4, 12]: 2.07; pathogen growth [4, 13]: 4.05; pathogen growth [4, 14]: 5.6; pathogen growth [5, 10]: 2.19; pathogen growth [5, 11]: 2.61; pathogen growth [5, 12]: 1.58; pathogen growth [5, 13]: 0.902; pathogen growth [5, 14]: 0.753; pathogen growth [6, 10]: 1.3; pathogen growth [6, 11]: 1.21; pathogen growth [6, 12]: 0.959; pathogen growth [6, 13]: 0.831; pathogen growth [6, 14]: 0.953
CCN(CC)CCOc1ccc(C(=C(Cl)c2ccccc2)c2ccccc2)cc1 [Clomiphene] | 1.36 | 1.7 | 2.3 | 3.33 | 1.41 | 1.97 | 3.27 | 4.6 | 0.835 | 1.13 | 1.17 | 2.18 | 1.53 | 1.18 | 1.1 | 1.08 | 1.17 | 0.981 | 4.31 | 5.48 | S. Typhimurium luminescence [7, 13]: 3.06; pathogen growth [4, 10]: 1.28; pathogen growth [4, 11]: 1.5; pathogen growth [4, 12]: 1.88; pathogen growth [4, 13]: 1.89; pathogen growth [5, 10]: 3.25; pathogen growth [5, 11]: 2.76; pathogen growth [5, 12]: 3.45; pathogen growth [5, 13]: 5.91; pathogen growth [6, 10]: 1.42; pathogen growth [6, 11]: 1.59; pathogen growth [6, 12]: 2.38; pathogen growth [6, 13]: 4.29
O=C1NCCN1CCN1CCC(c2cn(-c3ccc(F)cc3)c3ccc(Cl)cc23)CC1 [Sertindole] | 0.974 | 0.973 | 1.12 | 22.1 | 1.2 | 1.01 | 1.02 | 68.8 | 1.1 | 0.864 | 1.08 | 21.6 | 1.37 | 1.26 | 1.66 | 1.6 | 1.54 | 0.983 | 2.02 | 5.69 | pathogen growth [4, 10]: 1.06; pathogen growth [4, 11]: 1.06; pathogen growth [4, 12]: 1.12; pathogen growth [4, 13]: 21.6; pathogen growth [5, 10]: 1.16; pathogen growth [5, 11]: 1.17; pathogen growth [5, 12]: 1.57; pathogen growth [5, 13]: 82.2; pathogen growth [6, 10]: 1.03; pathogen growth [6, 11]: 1.16; pathogen growth [6, 12]: 1.31; pathogen growth [6, 13]: 65.9
CN(N=O)C(=O)N[C@@H](C=O)[C@@H](O)[C@H](O)[C@H](O)CO [Streptozotocin] |  |  |  |  |  |  |  |  |  |  |  |  | 1.52 | 2.07 | 4.36 | 4.38 | 8 | 17 | 18.5 | 23.4 | S. Typhimurium luminescence [7, 13]: 5.04; S. Typhimurium luminescence [7, 15]: 3.49; Com20 community biomass OD578 [9, 10]: 1.01; Com20 community biomass OD578 [9, 11]: 0.984; Com20 community biomass OD578 [9, 12]: 0.846; Com20 community biomass OD578 [9, 13]: 0.841; Com20 community biomass OD578 [9, 15]: 0.76
C[C@]1(Cn2ccnn2)[C@H](C(=O)O)N2C(=O)C[C@H]2S1(=O)=O [Tazobactam] |  |  |  |  |  |  |  |  |  |  |  |  | 1.81 | 2.19 | 3.3 | 2.41 | 3.04 | 3.82 | 5.3 | 38.4 | S. Typhimurium luminescence [7, 13]: 3.09; S. Typhimurium luminescence [7, 15]: 4.72; Com20 community biomass OD578 [9, 10]: 0.843; Com20 community biomass OD578 [9, 11]: 0.728; Com20 community biomass OD578 [9, 12]: 0.586; Com20 community biomass OD578 [9, 13]: 0.855; Com20 community biomass OD578 [9, 15]: 0.649
CCCc1nc2c(C)cc(-c3nc4ccccc4n3C)cc2n1Cc1ccc(-c2ccccc2C(=O)O)cc1 [Telmisartan] |  |  |  |  |  |  |  |  |  |  |  |  | 1.01 | 0.597 | 0.468 | 0.745 | 0.65 | 0.514 | 0.913 | 2.23 | S. Typhimurium luminescence [7, 13]: 0.54; S. Typhimurium luminescence [7, 15]: 0.653; Com20 community biomass OD578 [9, 10]: 0.979; Com20 community biomass OD578 [9, 11]: 0.977; Com20 community biomass OD578 [9, 12]: 0.921; Com20 community biomass OD578 [9, 13]: 0.927; Com20 community biomass OD578 [9, 15]: 0.957
Nc1nc(=S)c2ncn([C@@H]3O[C@H](CO)[C@@H](O)[C@H]3O)c2[nH]1 [Thioguanosine] |  |  |  |  |  |  |  |  |  |  |  |  | 0.923 | 0.751 | 0.701 | 1.04 | 1.06 | 1.25 |  |  | S. Typhimurium luminescence [7, 16]: 1.3; S. Typhimurium luminescence [7, 17]: 0.93; Com20 community biomass OD578 [9, 16]: 1.01; Com20 community biomass OD578 [9, 17]: 0.993; Com20 community biomass OD578 [9, 10]: 1.03; Com20 community biomass OD578 [9, 11]: 1.05; Com20 community biomass OD578 [9, 12]: 1.02; pathogen growth [8, 16]: 1.07; pathogen growth [8, 17]: 1.09
O=C(O)Cc1cc(I)c(Oc2ccc(O)c(I)c2)c(I)c1 [Tiratricol] | 1.12 | 1.84 | 1.74 | 2.25 | 1.01 | 1.12 | 1.65 | 4.05 | 0.829 | 0.916 | 1.28 | 2.03 |  |  |  |  |  |  |  |  | pathogen growth [1, 14]: 11.3; pathogen growth [2, 14]: 9.47; pathogen growth [3, 14]: 3.43; pathogen growth [4, 10]: 1.31; pathogen growth [4, 11]: 1.31; pathogen growth [4, 12]: 1.56; pathogen growth [4, 13]: 3.96; pathogen growth [4, 14]: 14.9; pathogen growth [5, 10]: 0.691; pathogen growth [5, 11]: 0.933; pathogen growth [5, 12]: 1.06; pathogen growth [5, 13]: 0.465; pathogen growth [5, 14]: 0.987; pathogen growth [6, 10]: 1.11; pathogen growth [6, 11]: 1.08; pathogen growth [6, 12]: 1.16; pathogen growth [6, 13]: 1.08; pathogen growth [6, 14]: 2.69
